Measured values from the supplement of paper PMC9588766.
Structures can show the parent of a compound that is named as a salt. The full ranking holds about 1,900 compounds; the median of “cell viability of compound + 1 nM pemigatinib relative to pemigatinib-only (DMSO) wells” is about 0.95, and the lowest 2% start at about 0.22. Some of the results follow.

Test system: PDC-DUC18828
Assay: cell viability of compound + 1 nM pemigatinib relative to pemigatinib-only (DMSO) wells (fraction); PDC-DUC18828 is a patient-derived cholangiocarcinoma cell line; higher = less growth inhibition
Settings: first compound 1 µM; pemigatinib concentration 1 nM; 72 h
Procedure: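 Selleck Bioactive library screen in the patient-derived FGFR2 fusion-positive ICC cell line PDC-DUC18828 (500 cells/well). Each compound was tested at 1 uM with 1 nM pemigatinib, in triplicate, for 72 h. Viability was read by CellTiter-Glo and normalised to plate DMSO controls. Value is the paper's averaged normalised viability.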

Row | SMILES | cell viability
1 | C[C@H]1COc2c(N3CCN(C)CC3)c(F)cc3c(=O)c(C(=O)O)cn1c23 [Levofloxacin] + CCN1C(=O)N(c2c(F)c(OC)cc(OC)c2F)Cc2cnc3[nH]c(CN4CCOCC4)cc3c21 [pemigatinib] | 0.979
2 | Fc1ccc([C@@H]2CCNC[C@H]2COc2ccc3c(c2)OCO3)cc1 [Paroxetine HCl] + CCN1C(=O)N(c2c(F)c(OC)cc(OC)c2F)Cc2cnc3[nH]c(CN4CCOCC4)cc3c21 [pemigatinib] | 0.857
3 | Nc1nc(O)c2ncn(CCC(CO)CO)c2n1 [Penciclovir] + CCN1C(=O)N(c2c(F)c(OC)cc(OC)c2F)Cc2cnc3[nH]c(CN4CCOCC4)cc3c21 [pemigatinib] | 0.97
4 | CN(C/C=C/C#CC(C)(C)C)Cc1cccc2ccccc12 [Terbinafine] + CCN1C(=O)N(c2c(F)c(OC)cc(OC)c2F)Cc2cnc3[nH]c(CN4CCOCC4)cc3c21 [pemigatinib] | 1.06
5 | CN(C/C=C/C#CC(C)(C)C)Cc1cccc2ccccc12 [Terbinafine HCl] + CCN1C(=O)N(c2c(F)c(OC)cc(OC)c2F)Cc2cnc3[nH]c(CN4CCOCC4)cc3c21 [pemigatinib] | 0.95
6 | O=c1[nH]cnc2c1ncn2[C@H]1CC[C@@H](CO)O1 [Didanosine] + CCN1C(=O)N(c2c(F)c(OC)cc(OC)c2F)Cc2cnc3[nH]c(CN4CCOCC4)cc3c21 [pemigatinib] | 1.1
7 | Clc1ccc(Nc2nnc(Cc3ccncc3)c3ccccc23)cc1 [Vatalanib (PTK787) 2HCl] + CCN1C(=O)N(c2c(F)c(OC)cc(OC)c2F)Cc2cnc3[nH]c(CN4CCOCC4)cc3c21 [pemigatinib] | 0.986
8 | Cn1cc(-c2ccc3nnc(Sc4ccc5ncccc5c4)n3n2)cn1 + CCN1C(=O)N(c2c(F)c(OC)cc(OC)c2F)Cc2cnc3[nH]c(CN4CCOCC4)cc3c21 [pemigatinib] | 1.02
9 | Cc1cc(O)c2c(c1)C(=O)c1cc(O)cc(O)c1C2=O [Emodin] + CCN1C(=O)N(c2c(F)c(OC)cc(OC)c2F)Cc2cnc3[nH]c(CN4CCOCC4)cc3c21 [pemigatinib] | 1
10 | O=C1NC(=O)/C(=C/c2cccc(C(F)(F)F)c2)S1 + CCN1C(=O)N(c2c(F)c(OC)cc(OC)c2F)Cc2cnc3[nH]c(CN4CCOCC4)cc3c21 [pemigatinib] | 1.03
11 | CN1CCN(C2CCN(C(=O)Nc3cc(Oc4ccc(NC(=O)C5(C(=O)Nc6ccc(F)cc6)CC5)c(F)c4)ccn3)CC2)CC1 [Golvatinib (E7050)] + CCN1C(=O)N(c2c(F)c(OC)cc(OC)c2F)Cc2cnc3[nH]c(CN4CCOCC4)cc3c21 [pemigatinib] | 0.888
